According to PubChem BioAssay AID493208 (National Center for Advancing Translational Sciences (NCATS), 2011):
Out of some 44,000 compounds screened, about 340 (0.77%) were called active. The shares of active, inactive and inconclusive entries below differ from those in the screen. Calls come from the whole dose curve; as a rule, active = well fitted inhibition curve with a large enough effect; inconclusive = small, poorly fitted or top-dose-only effect; inactive = flat fitted curve, though single readings scatter. Potencies of inconclusive entries are left out as doubtful fits.

Assay: Acumen qHTS Assay for Inhibitors of the mTORC1 Signaling Pathway in MEF (Tsc2-/-, p53-/-) Cells: Sytravon; note: nearly all actives have a fitted effect of over 50% in size;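 for activity change, negative = inhibition: plate controls were DMSO for no effect and rapamycin for full effect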
Settings: phospho-rpS6 immunofluorescence/PI, 24 h; series mostly up to 38.3 µM; activity change, negative = inhibition: at the top concentration
Procedure, shortened: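 Tsc2-/-, p53-/- MEFs (empty-vector stable line) in DMEM + 10% FBS were treated with compounds 24 h at 37 degree Celsius, fixed, and immunostained for phospho-rpS6 (Alexa-488) with propidium iodide counterstain. Laser-scanning cytometry gave % positive cells, normalized against 7.5 nM rapamycin and DMSO.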
Potency is the fitted concentration of half-maximal effect; tags give direction and shape of the fitted curve.

Row | SMILES | Potency | activity change, negative = inhibition
1 | Cc1ccc(NC(=O)c2cc(S(=O)(=O)NCCC3=CCCCC3)ccc2F)cc1C | inconclusive [falling, single point] | –
2 | CCN1C(=O)c2ccccc2S(=O)c2ccc(C(=O)N3CCN(c4ccccc4)CC3)cc21 (stereo not given) | – | inactive: -8.2%
3 | CCc1nnc2c3ccccc3nc(Nc3ccccc3OC)n12 | inconclusive [falling, partial curve, poor fit] | –
4 | CCCC(=O)C1=C(c2ccc(C)cc2)N(C(=O)CCC)n2cnnc2S1 | inconclusive [falling, single point] | –
5 | CCN1CCN(c2cc(C)c3cc(NC(=O)c4cccc(Cl)c4)ccc3n2)CC1 | active: 11.7 µM | –
6 | COC(=O)c1scc(-c2ccc(C)cc2)c1S(=O)(=O)Nc1cccc(Cl)c1C | inconclusive [falling, partial curve, poor fit] | –
7 | O=C(Nc1nnc(S(=O)(=O)N2CCCCC2)s1)c1ccc(F)cc1 | inconclusive [falling, single point] | –
8 | Cc1ccc(-c2cn3c(n2)sc2cc(C(=O)NC4CCCc5ccccc54)ccc23)cc1 (stereo not given) | inconclusive [falling, partial curve, poor fit] | –
9 | Cc1c(C(=O)NCc2ccccc2)sc2nc[nH]c(=O)c12 | – | inactive: -8.32%
10 | CC1CCCCN1S(=O)(=O)c1cc2c(=O)nc3ccccn3c2cc1Cl (stereo not given) | inconclusive [falling, partial curve, poor fit] | –
11 | COc1ccc(-n2cc(-c3ccc4c(c3)OCO4)n(CC(=O)Nc3cc(Cl)ccc3C)c2=O)cc1 | – | inactive: -12.7%
12 | CCN(C(=O)CSc1nc2ccccc2n1CC(=O)N(C)C1CCCCC1)c1ccccc1 | inconclusive [falling, single point] | –
13 | CCOC(=O)N1CCN(Cc2nc3cc(NC(=O)c4ccccc4Cl)ccc3n2C(C)C)CC1 | inconclusive [falling, partial curve, poor fit] | –
14 | O=C(Cn1cc(S(=O)(=O)N2CCCC2)c(S(=O)(=O)N2CCCC2)c1)Nc1ccc(F)cc1 | – | inactive: -8.39%
15 | CCOC(=O)c1ccc(NC(=O)N2CC3CCCN3c3ccccc32)cc1 (stereo not given) | inconclusive [falling, partial curve, poor fit] | –
16 | Cc1ccc(S(=O)(=O)c2cnc(SCC(=O)Nc3ccc4c(c3)OCCO4)[nH]c2=O)cc1C | – | inactive: 1.67%
17 | CCN(CCCNC(=O)c1cc2c(=O)n(CC)c3ccccc3c2s1)Cc1ccccc1 | active: 18.5 µM | –
18 | COc1ccc(C)cc1NC(=O)C(Cc1ccccc1)NS(=O)(=O)c1ccc(Br)s1 (stereo not given) | active: 6.56 µM | –
19 | CCOC(=O)Cn1c(=O)c2c(nc(N3CCOCC3)n2Cc2ccccc2)n(C)c1=O | active: 9.27 µM | –
20 | Cc1ccc(NC(=O)c2nnn(Cc3cccc(C(F)(F)F)c3)c2N)c(C)c1 | inconclusive [falling, partial curve, poor fit] | –
21 | COc1ccc(NC(=O)c2c(C)oc3ccc(O)c(CN4CCCCCC4)c23)cc1 | inconclusive [falling, single point] | –
22 | O=C(COC(=O)c1cccc(NC(=O)c2ccc(Br)cc2)c1)c1ccc(Cl)cc1 | inconclusive [falling, single point] | –

Row | SMILES | Potency | activity change, negative = inhibition
23 | Cc1cc(C)c(S(=O)(=O)NCC(c2ccco2)S(=O)(=O)c2cccs2)c(C)c1 (stereo not given) | – | inactive: -4.67%
24 | Cc1cc(Br)cc2c1N(Cc1ccccc1OC(C)C)C(=O)C2=O | inconclusive [falling, single point] | –
25 | CC1CCCN(CCCNC(=O)c2cc3c(Cl)nc4ccccc4c3s2)C1 (stereo not given) | active: 18.5 µM | –
26 | Cc1ccc(NC(=O)N2CC3CCCN3c3ccccc32)cc1Cl (stereo not given) | inconclusive [falling, single point] | –
27 | Cc1ccccc1OC(=O)c1cc(-c2ccc3c(c2)OCCO3)on1 | – | inactive: 2.39%
28 | CCc1ccccc1NC(=O)Cn1nnc2sc3c(c2c1=O)CCC(C(C)(C)C)C3 (stereo not given) | inconclusive [falling, partial curve, poor fit] | –
29 | CC(C)CCN(C(=O)Nc1ccc(Cl)c(Cl)c1)C1CCN(C(C)C)CC1 | inconclusive [falling, partial curve] | –
30 | Cc1cc(NC(=O)c2ccccc2F)ccc1-c1nc2ccccc2s1 | – | inactive: -6.52%
31 | CCOC(=O)Cc1ccc(NC(=O)N(Cc2ccc(OC)cc2)C2CCN(C(C)=O)CC2)cc1 | inconclusive [falling, partial curve, poor fit] | –
32 | Cc1ccc(-n2c(SCC(=O)N3CCc4ccccc43)nc3c([nH]c4ccccc43)c2=O)cc1 | – | inactive: -10.7%
33 | CCOC(=O)N1CCN(Cc2nc3cc(NC(=O)c4ccc(F)cc4)ccc3n2C(C)C)CC1 | inconclusive [falling, partial curve, poor fit] | –
34 | CCN(CC)c1cc(C)c2cc(NC(=O)c3cc(OC)cc(OC)c3)ccc2n1 | inconclusive [falling, single point] | –
35 | COc1ccc(NC(=O)CCS(=O)(=O)c2nc(-c3cccs3)cc(C(F)(F)F)n2)cc1 | inconclusive [falling, partial curve, poor fit] | –
36 | O=C(Nc1nnc(-c2cc(Cl)ccc2Cl)o1)c1ccc2c(c1)OCCO2 | inconclusive [falling, partial curve, poor fit] | –
37 | CCc1ccc(NS(=O)(=O)c2ccc3oc(=O)c4ncn(CC)c4c3c2)cc1 | inconclusive [falling, partial curve, poor fit] | –
38 | CCn1c(CN2CCOCC2)nc2cc(NC(=O)c3ccccc3[N+](=O)[O-])ccc21 | inconclusive [falling, partial curve, poor fit] | –
39 | Cc1cccc(-c2c3c(=O)n(C)c(=O)n(C)c3c3c(C)nc4ccccc4n23)c1 | – | inactive: -12.4%
40 | Cc1[nH]n2c(=O)cc(-c3ccc(Cl)cc3)nc2c1-c1ccccc1 | inconclusive [falling, single point] | –
41 | O=C(CN1C(=O)COc2ccc(S(=O)(=O)N3CCCCCC3)cc21)Nc1cccc(Cl)c1 | inconclusive [falling, partial curve, poor fit] | –
42 | Cc1nc2scc(C)n2c(=O)c1S(=O)(=O)Nc1ccc(N2CCN(S(C)(=O)=O)CC2)cc1 | inconclusive [falling, full curve, poor fit] | –
43 | COc1cc(/C=C(\C#N)c2nc3ccccc3[nH]2)ccc1OCc1ccc(F)cc1 | inconclusive [falling, partial curve, poor fit] | –
44 | CCCN(CCC)CCCNC(=O)c1cnn(-c2ccc(F)cc2)c1-n1cccc1 | – | inactive: -6.88%

Row | SMILES | Potency | activity change, negative = inhibition
45 | CCc1ccc(NC(=O)CCc2c(C)nc3nc(-c4cc(OC)cc(OC)c4)nn3c2C)cc1 | – | inactive: 2.78%
46 | COc1ccc(N(Cc2ccccc2)C(=O)c2nc(S(C)(=O)=O)ncc2Cl)cc1 | active: 2.07 µM | –
47 | COc1ccc(CC(=O)NCCS(=O)(=O)N2CCN(c3ccccc3F)CC2)cc1OC | inconclusive [falling, partial curve, poor fit] | –
48 | Cc1cccc(NC(=O)CSc2ncc(-c3ccc(Br)cc3)[nH]2)c1 | – | inactive: -27.5%
49 | CN(C)CCNC(=O)c1ccc(-n2c(-c3ccccc3)cc3c2CCCCC3)cc1 | inconclusive [falling, partial curve, poor fit] | –
50 | CN(C)CCNC(=O)c1ccc(Cn2c(SCc3ccc(F)cc3)nc3cccnc32)cc1 | – | inactive: -5.55%
51 | COc1ccc(C(=O)c2cn(Cc3cccc(C)c3)c3cc4c(cc3c2=O)OCO4)cc1 | inconclusive [falling, single point] | –
52 | COc1ccc(C(=O)Nc2ccc3oc(-c4ccc5ccccc5c4)nc3c2)cc1Br | inconclusive [falling, single point] | –
53 | O=S(=O)(c1ccc(-c2csc(=Nc3ccc(OC(F)(F)Cl)cc3)n2CCCO)cc1)N1CCCC1 | inconclusive [falling, single point] | –
54 | CN(C)c1ccc(-c2nnc3n(Cc4ccccc4)c(=O)c4ccccc4n23)cc1 | – | inactive: 2.62%
55 | CC(C)Oc1cccc(C2CC(=O)Nc3cc4c(cc32)OCO4)c1 (stereo not given) | active: 6.56 µM | –
56 | CSc1ccc(CCNC(=O)C(C)n2nc(C)c3sc4ccccc4c3c2=O)cc1 (stereo not given) | active: 0.521 µM | –
57 | COCCCN1C(=O)c2[nH]nc(-c3ccccc3O)c2C1c1ccc(OCc2ccccc2)cc1 (stereo not given) | inconclusive [falling, single point] | –
58 | O=c1[nH]c(SCc2ccc(F)cc2)nc2c1CCCC2 | inconclusive [falling, full curve, poor fit] | –
59 | O=C(Nc1cc(Cl)cc(Cl)c1)c1ccc(F)c(S(=O)(=O)N2CCCCCC2)c1 | inconclusive [falling, single point] | –
60 | COC(=O)c1ccc(C2C=C(c3ccc(Cl)cc3)Nc3nc4ccccc4n32)cc1 (stereo not given) | inconclusive [falling, single point] | –
61 | O=C(CSc1nc(-c2ccc(F)cc2)nc2c1Cc1ccccc1O2)Nc1cccc(C(=O)O)c1 | inconclusive [falling, partial curve, poor fit] | –
62 | Cc1ccc(C(C)C)c(OCC(=O)NCC2(N3CCOCC3)CCCCC2)c1 | inconclusive [falling, single point] | –
63 | COc1ccccc1N1CCN(CCCNC(=O)c2nnc(Cc3c(F)cccc3Cl)o2)CC1 | – | inactive: -8.31%
64 | Cc1ccc(CNS(=O)(=O)c2ccc(-c3cnc(C4CC4)o3)cc2)cc1 | – | inactive: 1.48%
65 | COc1ccc(Br)c(C(=O)Nc2cc3c(cc2N2CCCC2)n(C)c(=O)c(=O)n3C)c1 | inconclusive [falling, single point] | –
